What was measured:
[1] = test system: P. aeruginosa serogroup 05 strain (PAO1.lux); assay: Opsonophagocytic killing (OPK) assay with luminescent PAO1.lux, HL-60 cells and baby rabbit serum; format: cell-based, Pseudomonas aeruginosa; conditions: FIG. 27A
Method: This example describes the evaluation of prioritized human IgG1 antibodies to promote OPK of P. aeruginosa. […] OPK assays were performed as described in (DiGiandomenico, A., et al., Infect Immun 72, 7012-7021 (2004)), with modifications. Briefly, assays were performed in 96-well plates using 0.025 ml of each OPK component; P. aeruginosa strains; diluted baby rabbit serum; differentiated HL-60 cells; and monoclonal antibody. In some OPK assays, luminescent P. aeruginosa strains, which were constructed as described (Choi, K. H., et al., Nat Methods 2, 443-448 (2005))., were used. Luminescent OPK assays were performed as described above but with determination of relative luciferase units (RLUs) using a Perkin Elmer ENVISION Multilabel plate reader (Perkin Elmer).

[2] = test system: P. aeruginosa 6206 (O11-ExoU+); assay: Acute pneumonia model in mice, strain 6206; format: in vivo, Pseudomonas aeruginosa
Method: Antibodies or PBS were administered 24 hours before infection in each model. P. aeruginosa acute pneumonia, keratitis, and thermal injury infection models were performed as described (DiGiandomenico, A., et al., Proc Natl Acad Sci USA 104, 4624-4629 (2007)), with modifications. In the acute pneumonia model, BALB/c mice (The Jackson Laboratory) were infected with P. aeruginosa strains suspended in a 0.05 ml inoculum. In the thermal injury model, CF-1 mice (Charles River) received a 10% total body surface area burn with a metal brand heated to 92° C. for 10 seconds. Animals were infected subcutaneously with P. aeruginosa strain 6077 at the indicated dose. For organ burden experiments, acute pneumonia was induced in mice followed by harvesting of lungs, spleens, and kidneys 24 hours post-infection for determination of CFU.

P. aeruginosa 6206 = assay: Inhibition of RBC lysis with strain 6206; format: cell-based, Pseudomonas aeruginosa; conditions: FIG. 19C
Method: (§1) Percent inhibition of cytotoxicity analysis was analysed for the parental V2L2 mAb, mAb166 (positive control) and R347 (negative control), where the antibodies were administered to cultured broncho-epithelial cell line A549 combined with log-phase P. aeruginosa strain 6077 (exoU+) at a MOI of approximately 10. A549 lysis was assayed by measuring released lactate dehydrogenase (LDH) activity and lysis in the presence of mAbs was compared to wells without mAb to determine percent inhibition. The V2L2 mAb, mAb166 (positive control) and R347 (negative control) were evaluated for their ability to prevent lysis of RBCs, where the antibodies were mixed with log-phase P. aeruginosa 6077 (exoU^+) and washed rabbit red blood cells (RBCs) and incubated for 2 hours at 37°. Intact RBCs were pelleted and the extent of lysis determined by measuring the OD405 of the cell-free supernatant. Lysis in the presence of anti-PcrV mAbs was compared to wells without mAb to determine percent inhibition.
As shown in FIG. 19 (A-C), percent inhibition of cytotoxicity was analyzed for both Bs2-V2L2 and Bs3-V2L2 using both (A) 6206 and (B) 6206ΔpslA infected cells, and (C) percent inhibition of RBC lysis was analyzed for Bs2-V2L2-2C, Bs3-V2L2-2C and Bs4-V2L2-2C using 6206 infected cells.

[3] = test system: P. aeruginosa PAO1.lux attachment to A549 cells; assay: Cell attachment assay, PAO1.lux on A549 cells; format: cell-based, Pseudomonas aeruginosa; conditions: FIG. 27B
Method: Anti-Psl antibodies were added to a confluent monolayer of A549 cells (an adenocarcinoma human alveolar basal epithelial cell line) grown in opaque 96-well plates (Nunc Nunclon Delta). Log-phase luminescent P. aeruginosa PAO1 strain (PAO1.lux) was added at an MOI of 10. After incubation of PAO1.lux with A549 cells at 37° C. for 1 hour, the A549 cells were washed, followed by addition of LB+0.5% glucose. Bacteria were quantified following a brief incubation at 37° C. as performed in the OPK assay described in Example 2. Measurements from wells without A549 cells were used to correct for non-specific binding.

[4] = test system: P. aeruginosa 6077 (exoU+); assay: Rabbit red blood cell lysis inhibition assay with strain 6077; format: cell-based, Pseudomonas aeruginosa; conditions: FIG. 27C
Method: as §1

[5] = 9.5×10^5 CFU 6206, 15.0, 5.0 and 1.0 mg/kg prophylaxis, FIG. 25D

B1: Bs4-V2L2-2C: W4-RAD scFv inserted in hinge region of V2L2 IgG; light and heavy chain SEQ ID NOS: 327 and 328 (protein)
light: AIQMTQSPSSLSASVGDRVTITCRASQGIRNDLGWYQQKPGKAPKLVIYSASTLQSGVPSRFSGSGSGTDFTLSISSLQPDDFATYYCLQDYNYPWTFGQGTKVEIKRTVAAPSVFIFPPSDEQLKSGTASVVCLLNNFYPREAKVQWKVDNALQSGNSQESVTEQDSKDSTYSLSSTLTLSKADYEKHKVYACEVTHQGLSSPVTKSFNRGEC
heavy: EMQLLESGGGLVQPGGSLRLSCAASGFTFSSYAMNWVRQAPGEGLEWVSAITISGITAYYTDSVKGRFTISRDNSKNTLYLQMNSLRAGDTAVYYCAKEEFLPGTHYYYGMDVWGQGTTVTVSSASTKGPSVFPLAPSSKSTSGGTAALGCLVKDYFPEPVTVSWNSGALTSGVHTFPAVLQSSGLYSLSSVVTVPSSSLGTQTYICNVNHKPSNTKVDKRVEPKSCGGGGSGGGGSEVQLLESGPGLVKPSETLSLTCNVAGGSISPYYWTWIRQPPGKCLELIGYIHSSGYTDYNPSLKSRVTISGDTSKKQFSLHVSSVTAADTAVYFCARADWDLLHALDIWGQGTLVTVSSGGGGSGGGGSGGGGSGGGGSEIVLTQSPSSLSTSVGDRVTITCRASQSIRSHLNWYQQKPGKAPKLLIYGASNLQSGVPSRFSGSGSGTDFTLTISSLQPEDFATYYCQQSYSFPLTFGCGTKLEIKGGGGSGGGGS[letters of human IgG1 Fc not shown]
modifications: Bs4-V2L2-C2 VL
difference in functional activity between Bs4-WT, Bs4-GL and Bs4-GLO, OPK assay [1]: No in vitro difference in functional activities
bacterial burden in the lung [2, 5]: rapid and efficient bacterial clearance was observed from the lung
bacterial dissemination to the spleen and kidneys [2, 5]: bacterial dissemination to the spleen and kidneys were also ablated
protection against lethal pneumonia, ranking ([2]; 6206 (ExoU+), 0.1-15 mg/kg, FIG. 21I): most effective in protection against lethal pneumonia
survival activity in comparison to Bs3-V2L2 ([2]; 6206, 0.5 mg/kg, FIG. 21D): greater activity in comparison to Bs3-V2L2
survival activity in comparison to Bs2-V2L2 (results not statistically significant) ([2]; 6206, 1.0 mg/kg, FIG. 21C): appeared to have greater activity in comparison to Bs2-V2L2
survival activity in comparison to the W4 + V2L2 antibody mixture ([2]; 6206, Bs4 2 and 1 mg/kg vs. mixture 1.0 and 0.5 mg/kg each, FIG. 21E): greater activity in comparison to the antibody mixture
survival activity in comparison to Bs2-V2L2 ([2]; 6206, both 1.0 and 0.5 mg/kg, FIG. 21B): greater activity in comparison to Bs2-V2L2
inhibition of RBC lysis compared to parental V2L2 (P. aeruginosa 6206): inhibited RBC lysis at levels similar to the parental V2L2 antibody
difference in functional activity between Bs4-WT, Bs4-GL and Bs4-GLO, anti-cell attachment assay [3]: No in vitro difference in functional activities
difference in functional activity between Bs4-WT, Bs4-GL and Bs4-GLO, RBC lysis anti-cytotoxicity assay [4]: No in vitro difference in functional activities
